One assay has as its system HSkMC. Put plainly: cytotoxicity call (relative viability < 0.9). The settings on record: 10 µM.
For a further assay, the system named is S. aureus RN4220. In words: growth inhibition call (relative growth <= 0.2). The settings on record: 50 µM.
A further assay has as its system HepG2. In words: cytotoxicity call (relative viability < 0.9). The settings on record: 10 µM.

The text below walks through data of the antibiotic and cytotoxicity screens of Wong et al. (2023).

Each structure is given as a SMILES string. This is one part of the list.

Regarding `Cc1cc([N+](=O)[O-])cnc1N1CCNCC1`, the cytotoxicity call in the assay on HSkMC was “inactive”. In the assay on S. aureus RN4220, the growth inhibition call is “inactive”.
With `Cc1csc(CCN)n1`, the cytotoxicity call with HSkMC was “inactive”. Moreover, the growth inhibition call with S. aureus RN4220 is “inactive”.
For the compound `O=S(=O)(N[C@H]1CCO[C@]2(CCNC2)C1)C1CC1`, the cytotoxicity call with HSkMC is “inactive”. In the assay with S. aureus RN4220, the growth inhibition call is “inactive”.
With `O=C(O)CCl`, the cytotoxicity call in the assay on HSkMC was “inactive”. Besides, in the assay with S. aureus RN4220, the growth inhibition call is “inactive”.
For `CC(=O)Nc1cc([As](=O)(O)O)ccc1O`, the cytotoxicity call in the assay on HSkMC is “inactive”. Besides, the growth inhibition call with S. aureus RN4220 was “inactive”.
With `c1cnc(N2CCOC[C@@]3(CCCNC3)C2)cn1`, the cytotoxicity call in the assay with HSkMC was “inactive”. Moreover, the growth inhibition call in the assay with S. aureus RN4220 was “inactive”.
Take `O[C@H]1CNC[C@@H]1N1CCCC1`: the cytotoxicity call in the assay with HSkMC is “inactive”. Further, in the assay with S. aureus RN4220, the growth inhibition call was “inactive”.
For the compound `COC(=O)C[C@@H]1CC[C@H]2NC[C@H](O)COC[C@@H]2O1`, the cytotoxicity call in the assay on HSkMC was “inactive”. Moreover, the growth inhibition call in the assay with S. aureus RN4220 was “inactive”.
As to `CC1CCC2(NC1)OC1CC3C4CCC5CC(O)CCC5(C)C4CCC3(C)C1C2C.Cl` (centres undefined), the cytotoxicity call in the assay on HSkMC was “inactive”. Besides, the growth inhibition call in the assay on S. aureus RN4220 is “inactive”.
Consider `CO[C@@H]1C=C[C@@H]2[C@H]1N2CCO` (some centres undefined), for which the cytotoxicity call in the assay with HSkMC is “inactive”. In addition, in the assay with S. aureus RN4220, the growth inhibition call is “inactive”.
Regarding `C[C@H](CO)N1C[C@H](C)[C@@H](CN(C)C(=O)Oc2ccc3ccccc3c2)OCc2cn(nn2)CCCC1=O`, the cytotoxicity call with HSkMC is “inactive”. In addition, the growth inhibition call with S. aureus RN4220 is “inactive”.
For the compound `C[C@@H]1CN([C@@H](C)CO)C(=O)CCCn2nncc2CO[C@H]1CN(C)C(=O)Oc1ccc2ccccc2c1`, the cytotoxicity call in the assay with HSkMC was “inactive”. Further, the growth inhibition call in the assay on S. aureus RN4220 was “inactive”.
In the case of `CCN1CCN(c2nc(=O)cc(C)[nH]2)CC1`, the cytotoxicity call in the assay on HSkMC is “inactive”. Also, in the assay with S. aureus RN4220, the growth inhibition call was “inactive”.
Turning to `CN(C)C(=O)[C@H]1CCC2(CCNCC2)CO1`, the cytotoxicity call in the assay with HSkMC was “inactive”. Further, the growth inhibition call with S. aureus RN4220 was “inactive”.
As for `C=C[C@H]1[C@H](O[C@@H]2O[C@H](CO)[C@@H](O)[C@H](O)[C@H]2O)OC=C2C(=O)OCC[C@H]21`, in the assay with HSkMC, the cytotoxicity call was “inactive”. In addition, in the assay on S. aureus RN4220, the growth inhibition call is “inactive”.
Regarding `O=C1CC[C@]2(CCCN(Cc3cnc[nH]3)C2)N1`, in the assay on HSkMC, the cytotoxicity call was “inactive”. Besides, the growth inhibition call in the assay with S. aureus RN4220 was “inactive”.
On to `CNCC(=O)c1ccc(O)c(O)c1`, for which, in the assay on HSkMC, the cytotoxicity call was “inactive”. For the same compound, in the assay with S. aureus RN4220, the growth inhibition call was “inactive”.
Turning to `N[C@@]1(C(=O)O)CC[C@H](C(=O)O)C1`, the cytotoxicity call in the assay on HSkMC was “inactive”. In addition, the growth inhibition call in the assay on S. aureus RN4220 was “inactive”.
For `CC=C(C)C(=O)OC1CCC2(C)C3CCC4C5(O)CC(O)C6(O)C(CN7CC(C)CCC7C6(C)O)C5(O)CC42OC13O.Cl` (centres undefined), the cytotoxicity call in the assay on HSkMC was “inactive”. Also, the growth inhibition call in the assay with S. aureus RN4220 was “inactive”.
For the compound `OC1(c2cccnc2)CCNCC1`, the cytotoxicity call in the assay on HSkMC was “inactive”. Moreover, the growth inhibition call with S. aureus RN4220 is “inactive”.
With `COC(=O)C1(O)C[C@H]2CC[C@@H](C1)N2C` (some centres undefined), in the assay with HSkMC, the cytotoxicity call was “inactive”. In addition, the growth inhibition call in the assay on S. aureus RN4220 is “inactive”.
Regarding `O[C@H]1[C@H](O)[C@@H](O)CN2CC[C@H](O)[C@H]12`, in the assay with HSkMC, the cytotoxicity call was “inactive”. In the assay on S. aureus RN4220, the growth inhibition call was “inactive”.
With `CN1C2CCC1CC(OC(=O)C(CO)c1ccccc1)C2.O=S(=O)(O)O` (centres undefined), the cytotoxicity call with HSkMC and with HepG2 was “inactive” in each case. Also, in the assay with S. aureus RN4220, the growth inhibition call is “inactive”.
As to `Nc1ccc(Cl)cc1Cl`, the cytotoxicity call in the assay on HSkMC was “inactive”. Also, the growth inhibition call in the assay on S. aureus RN4220 was “inactive”.
For the compound `CC(C)[C@H]1CNC(=O)C1`, in the assay with HSkMC, the cytotoxicity call was “inactive”. Also, the growth inhibition call in the assay on S. aureus RN4220 is “inactive”.
Consider `O=C(NC[C@H]1CC[C@@H]2NC[C@@H]2O1)C1CCCC1`, for which the cytotoxicity call in the assay on HSkMC is “inactive”. For the same compound, the growth inhibition call in the assay on S. aureus RN4220 is “inactive”.
Take `Cc1ccc(N=CN(C)C=Nc2ccc(C)cc2C)c(C)c1`: the cytotoxicity call with HSkMC and with HepG2 was “inactive” throughout. Also, the growth inhibition call in the assay with S. aureus RN4220 was “inactive”.
Consider `N#CCCN1CCCC2(CCCC2)C1`, for which the cytotoxicity call in the assay with HSkMC was “inactive”. Besides, in the assay on S. aureus RN4220, the growth inhibition call is “inactive”.
Consider `OC[C@@H](O)Cc1ccc2c(c1)OCO2`, for which the cytotoxicity call in the assay on HSkMC and with HepG2 was “inactive” in each case. Besides, the growth inhibition call with S. aureus RN4220 was “inactive”.
`NC(Cc1ccccc1)Cc1ccccc1`: in the assay with HSkMC, the cytotoxicity call was “inactive”. Besides, in the assay with S. aureus RN4220, the growth inhibition call is “inactive”.
In the case of `C1CCC(NC2CCCC2)CC1`, the cytotoxicity call with HSkMC and in the assay with HepG2 was “inactive” each time. The growth inhibition call in the assay with S. aureus RN4220 was “inactive”.
As for `CC1(C)C(=O)C=CC2(C)C1CC(O)C1(C)C2CCC2(C)C(c3ccoc3)OC(=O)C3OC321` (centres undefined), the cytotoxicity call in the assay with HSkMC was “inactive”. The cytotoxicity call in the assay with HepG2 is “active”. Besides, the growth inhibition call in the assay with S. aureus RN4220 is “inactive”.
Turning to `ClC=C(Cl)Cl`, the cytotoxicity call in the assay on HSkMC and with HepG2 was “inactive” each time. The growth inhibition call with S. aureus RN4220 was “inactive”.
With `CCOC1OC2OC3(C)CCC4C(C)CCC(C1C)C24OO3` (centres undefined), in the assay with HSkMC, the cytotoxicity call was “inactive”. In addition, the cytotoxicity call with HepG2 is “active”. Also, the growth inhibition call in the assay on S. aureus RN4220 was “inactive”.
For `O=c1[nH]c2cc(N3CCNCC3)ccc2o1`, the cytotoxicity call in the assay on HSkMC is “inactive”. The cytotoxicity call in the assay on HepG2 is “active”. The growth inhibition call with S. aureus RN4220 is “inactive”.
Turning to `CNCC(=O)c1ccc(O)cc1`, the cytotoxicity call with HSkMC is “inactive”. Also, the growth inhibition call in the assay with S. aureus RN4220 is “inactive”.
For the compound `CC(COc1ccc(Oc2ccccc2)cc1)Oc1ccccn1` (centres undefined), the cytotoxicity call with HSkMC is “inactive”. Moreover, in the assay with S. aureus RN4220, the growth inhibition call was “inactive”.
As for `Clc1ccc(Cl)cc1`, the cytotoxicity call in the assay on HSkMC and in the assay on HepG2 was “inactive” throughout. Also, the growth inhibition call in the assay on S. aureus RN4220 was “inactive”.
Take `NC1N[C@H]2CCCC[C@@H]2N1`: the cytotoxicity call with HSkMC and with HepG2 was “inactive” throughout. The growth inhibition call in the assay with S. aureus RN4220 was “inactive”.
For `Cc1[nH]c2ccc(O)cc2c1CCN`, the cytotoxicity call in the assay on HSkMC was “inactive”. Besides, in the assay with S. aureus RN4220, the growth inhibition call was “inactive”.
Regarding `C1CN2CN3CCN(CN1C3)C2`, in the assay on HSkMC, the cytotoxicity call was “inactive”. Also, the growth inhibition call in the assay on S. aureus RN4220 was “inactive”.
On to `CC1=C[C@H]2O[C@@H]3[C@H](O)[C@@H](O[C@H]4O[C@H](CO)[C@@H](O)[C@H](O)[C@H]4O)[C@](C)([C@@]2(CO)CC1)[C@]31CO1`, for which the cytotoxicity call in the assay on HSkMC (human skeletal muscle cells) and in the assay with HepG2 was “active” throughout. Also, the growth inhibition call in the assay with S. aureus RN4220 was “inactive”.
As for `NC1(c2cccc(Cl)c2)CC1`, the cytotoxicity call in the assay with HSkMC is “inactive”. Moreover, the growth inhibition call in the assay on S. aureus RN4220 is “inactive”.
With `CNC(C)(C)Cc1ccccc1.O=S(=O)(O)O`, the cytotoxicity call in the assay with HSkMC is “inactive”. In addition, the growth inhibition call in the assay on S. aureus RN4220 is “inactive”.
Turning to `O=[N+]([O-])C(Br)(CO)CO`, the cytotoxicity call in the assay with HSkMC and in the assay with HepG2 was “active” in each case. In addition, in the assay on S. aureus RN4220, the growth inhibition call was “active”.
Regarding `CCN(CC)S(=O)(=O)c1ccc(Cn2nc(C(=O)Nc3ccc(N4CCCCC4)cc3)c3ccccc32)cc1`, the cytotoxicity call in the assay with HSkMC was “inactive”. Besides, the growth inhibition call with S. aureus RN4220 was “inactive”.
